Laboratory results reported in PMC4336329 (PLoS ONE, 2015).
About 14,000 (4.5%) of roughly 310,000 compounds showed an effect of 50% or more. Effects have a minus sign here. The list shows a part of the results.

These compounds were tested against human ether-à-go-go-related gene (hERG) potassium channel (human, UniProt Q12809) (assay: primary screen, population patch clamp on CHO cells stably expressing hERG).
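Further: peak tail current of the secondary pulse compared with the same well before compound.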

Sequence of human ether-à-go-go-related gene (hERG) potassium channel (Q12809 whole entry, looked up): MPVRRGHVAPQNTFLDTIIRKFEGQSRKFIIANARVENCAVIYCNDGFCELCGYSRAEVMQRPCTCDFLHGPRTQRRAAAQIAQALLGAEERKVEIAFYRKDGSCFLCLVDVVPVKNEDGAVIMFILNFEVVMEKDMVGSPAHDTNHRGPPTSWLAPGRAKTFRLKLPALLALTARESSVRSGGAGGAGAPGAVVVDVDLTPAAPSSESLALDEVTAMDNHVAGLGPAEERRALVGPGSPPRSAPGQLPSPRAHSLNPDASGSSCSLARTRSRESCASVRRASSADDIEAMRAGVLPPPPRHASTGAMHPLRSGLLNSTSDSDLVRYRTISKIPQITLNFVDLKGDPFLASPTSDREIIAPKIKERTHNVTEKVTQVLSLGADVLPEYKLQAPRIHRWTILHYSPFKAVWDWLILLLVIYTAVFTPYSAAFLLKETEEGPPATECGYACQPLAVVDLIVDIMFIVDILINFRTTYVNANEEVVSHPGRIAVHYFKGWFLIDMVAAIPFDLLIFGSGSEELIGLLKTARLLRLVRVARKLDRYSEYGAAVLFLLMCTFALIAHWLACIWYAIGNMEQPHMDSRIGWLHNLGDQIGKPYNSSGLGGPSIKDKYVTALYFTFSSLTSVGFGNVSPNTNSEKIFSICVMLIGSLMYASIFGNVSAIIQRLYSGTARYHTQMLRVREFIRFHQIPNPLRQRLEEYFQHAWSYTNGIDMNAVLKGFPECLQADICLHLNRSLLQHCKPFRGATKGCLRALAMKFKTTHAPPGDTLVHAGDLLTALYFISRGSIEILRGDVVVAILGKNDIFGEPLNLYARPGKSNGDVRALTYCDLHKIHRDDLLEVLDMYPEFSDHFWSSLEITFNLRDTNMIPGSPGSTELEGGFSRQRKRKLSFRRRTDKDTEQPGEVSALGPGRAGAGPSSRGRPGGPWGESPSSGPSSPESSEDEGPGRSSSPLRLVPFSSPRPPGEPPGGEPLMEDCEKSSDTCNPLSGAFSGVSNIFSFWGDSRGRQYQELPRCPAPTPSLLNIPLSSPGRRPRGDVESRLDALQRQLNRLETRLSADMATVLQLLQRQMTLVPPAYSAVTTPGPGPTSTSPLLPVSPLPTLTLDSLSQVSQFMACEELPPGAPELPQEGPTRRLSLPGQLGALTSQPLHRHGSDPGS

SMILES	hERG current change (%, negative = inhibition) at 10uM [%]
C=CCc1ccccc1OCC(O)CNC (centres unmarked)	12
CC1=CC(=O)C2=C(C)CC(O)C3C(C)C(=O)OC3C12.O (centres unmarked)	-7.36
O=C(CN1CCOCC1)Nc1cccc(S(=O)(=O)N2CCCCCC2)c1	-35.3
N#CCCn1c(-c2nonc2NC(=O)c2ccccc2Cl)nc2ccccc21	-5.62
CN(C)c1ccc(S(=O)(=O)NCC(=O)OCC(=O)NC(=O)C2CCCCC2)cc1[N+](=O)[O-]	3.79
CC1CCN(C(=O)Cn2c3ccccc3c3nc4n(c(=O)c32)CCCS4)CC1	7.55
CCOc1ccc(S(=O)(=O)N(C)CCO)cc1-c1nc2c(C(C)(C)C)nn(C)c2c(=O)[nH]1	-25.6
CC(C)Cn1c(-c2ccco2)n[nH]c1=S	12.9
CCOC(=O)c1cc(CC)sc1N1C(=O)CC(Sc2ncccc2C(=O)O)C1=O (centres unmarked)	23.2
O=C(c1ccc2c(c1)OCO2)C1CCCN(C(=O)C2CCOCC2)C1 (centres unmarked)	7.74
CCCc1cc(=O)[nH]c(SCC(=O)N2CCN(c3ccccc3)CC2)n1	-12.6
COc1ccccc1N(CC(=O)NC1CCCC1)C(=O)CCC(=O)Nc1ccccn1	6.68
CCOC(=O)c1sc(C)nc1C1CCN(C(=O)OCC)CC1	6.32
COc1ccc(CN2C(=O)NC(=O)/C(=C/c3ccoc3)C2=O)cc1	-32.7
CCOc1c(C)cnc2c1c(=O)n(Cc1cccc(Cl)c1)c(=O)n2C	-36.1
CCCNC(=O)NC(=O)CSc1nc2cc(C(=O)OC)ccc2c(=O)n1-c1ccccc1	-1.66
CC(C)[C@H]1CN=C2N(C[C@H](C)NC(=O)CCC3CCCCC3)[C@H](Cc3ccc(O)cc3)CN21	-59.7
CCN(CC1COc2ccccc2O1)C(=S)NC1CC2CCC1C2 (centres unmarked)	1.34
O=C(CSc1nc2ccccc2[nH]1)N1CCN(S(=O)(=O)c2ccc(Cl)cc2)CC1	-19.8
COc1cccc(/C=N/c2sc(Cc3ccccc3)c(C)c2C(N)=O)c1O	-4.7
CCC(=NC1CC1)c1c(O)n(C2CCCCC2)c(=O)[nH]c1=O	-18.5
Cc1cc2oc(=O)cc(CN3CCC(C)CC3)c2cc1C	-11.7
Cc1ccc(NC(=O)C2CCN(S(=O)(=O)c3ccc4c(c3)NC(=O)C(C)S4)CC2)c(C)c1 (centres unmarked)	-3.06

SMILES	hERG current change (%, negative = inhibition) at 10uM [%]
CCN(CC)S(=O)(=O)c1ccc(Oc2ccccc2)cc1	-20.7
Cc1cccc(NC(=O)c2ccc(OCC3CCCO3)cc2)c1C (centres unmarked)	-2.52
CC(C)NS(=O)(=O)c1ccc2c(c1)oc(=O)n2C	18
COCCNC(=O)CN(Cc1ccc(OC)cc1)C(=O)CCC(=O)Nc1nccs1	2.7
Cc1ccc(NS(=O)(=O)c2cccc(C(=O)N3CCCC(C)C3)c2)cc1 (centres unmarked)	-28.6
Cc1cc2nc(-c3ccccc3)cc(=O)n2[nH]1	-2.2
NC(=O)c1ccc(NS(=O)(=O)c2ccc3ccccc3c2)cc1	6.83
CCCCC(=O)Nc1ccccc1N1CCOCC1	6.55
O=C(O)c1cnn2c(-c3ccccc3)ccnc12	2.34
CSc1nsc(SCCN2C(=O)c3ccccc3C2=O)n1	-10.5
CCOC(=O)c1nnn2c1nc(SCC(C)=O)c1ccccc12	2.57
COc1ccc(-c2n[nH]c(C)c2-c2cnn(-c3ccccc3)c2)c(O)c1C	-5.82
CCOc1ccc(NS(=O)(=O)c2cc(OCC(N)=O)c(C)cc2Cl)cc1	0.133
COc1cc(OC)cc(C(=O)Nc2ccc(S(=O)(=O)Nc3ncccn3)cc2)c1	12.8
S=C(NCCCc1ccccc1)Nc1ccccc1	12.1
CC(=O)NCc1nnc2c3ccccc3c(-c3ccccc3)nn12	-31.9
COc1cc(/C=C/C(=O)OCC(=O)Nc2cc(S(=O)(=O)N(C)C)ccc2Cl)ccc1O	-7.89
CCOC(=O)c1c(NC(=O)CN2C(=O)NC3(CCCCC3C)C2=O)sc(C)c1CC (centres unmarked)	1.68
Cc1ccc(C(=O)NNC(=O)C2CCN(c3nccc(C)n3)CC2)cc1	10.1
CC(=O)c1ccc(OCC(=O)NC2CCS(=O)(=O)C2)cc1 (centres unmarked)	13.3
C/C(=N\NC(=O)c1c(Cl)c(C)nn1C)c1cccc(NC(=O)C2CCCC2)c1	-0.542
COc1ccc(-c2cccc(NC(=O)c3cccs3)c2)nn1	1.7
COC(=O)c1cc(NC(=O)C2CC2)cc(C(=O)OC)c1	2.74

SMILES	hERG current change (%, negative = inhibition) at 10uM [%]
Clc1ccc(C2=NN=C3COc4ccccc4N3C2)cc1	-25.3
O=C(OC1CCOC1=O)c1cccc(S(=O)(=O)Nc2cccc(Cl)c2)c1 (centres unmarked)	-1.86
N#CC1=CN(Cc2ccccc2)C=C(/C=N/Nc2ccccc2)C1	-5.72
CSc1ncccc1C(=O)NCC(c1cccs1)N1CCOCC1 (centres unmarked)	-5.1
O=C(Cn1c(O)c(/C=C2\C=Nc3ccccc32)sc1=O)Nc1ccc2c(c1)OCO2	5.87
CC1(C)NC(=O)N(CC(O)CN(c2ccccc2)S(=O)(=O)c2ccccc2)C1=O (centres unmarked)	-16.1
O=C(NCC1CCCO1)c1ccc(NC(=O)C2C3C=CC(C3)C2C(=O)O)cc1 (centres unmarked)	-1.71
Cc1ccc(-c2cc(C(=O)O)c3sc(N4CCCCC4)nc3n2)cc1	26.6
O=C(NC1CCCc2ccccc21)c1ccccc1Br (centres unmarked)	-39.9
CC(C(=O)Nc1ccc(S(=O)(=O)Nc2ncccn2)cc1)N1C(=O)c2ccccc2S1(=O)=O (centres unmarked)	-0.997
CC1=C(C(=O)OCc2ccccc2)C(c2ccccc2OS(=O)(=O)c2ccc(C)cc2)NC(=O)N1CCCC(=O)O (centres unmarked)	-47.2
C=CCNC(=O)c1onc(CSc2ccncc2)c1C(=O)NCC=C	-7.89
COc1cc2cc(C(c3nnnn3Cc3ccc(F)cc3)N3CCCCCC3)c(=O)[nH]c2cc1OC (centres unmarked)	-74
Nc1ccc(C(=O)OCC(=O)NC2CCS(=O)(=O)C2)cc1[N+](=O)[O-] (centres unmarked)	-3.78
O=C1CC(N2CCc3ccccc32)C(=O)N1c1ccc(F)cc1 (centres unmarked)	-5
O=C(CN1C(=O)c2cccc3cccc(c23)C1=O)N1CCN(c2ccccn2)CC1	6.25
COc1ccc(Cl)cc1NC(=O)CN(C)C(=O)c1ccc2n[nH]nc2c1	-13.8
COc1ccc(C(=O)NCCSCc2cccc(Cl)c2)cc1OC	-6.13
CCN(CC)c1ccc(NC(=O)CSc2nnc(N)s2)cc1C	2.78
CC(C)(C)OC(=O)NCCC(=O)Oc1ccc2ccc(=O)oc2c1	-4.42
O=C1CCC(/C=C/c2ccccc2)=NN1	11.1
CCc1c(C)nc(N)nc1N1N=C1SC(C(C)=O)C(C)=O	27.8
O=C(CSc1nnc(-c2ccccc2)o1)N1CCc2ccccc2C1	-2.21

SMILES	hERG current change (%, negative = inhibition) at 10uM [%]
CCN(C(=O)CSc1n[nH]c(-c2cccs2)n1)C1CCS(=O)(=O)C1 (centres unmarked)	12.2
CCOC(=O)c1sc(NC(=O)CSc2nc3cccnc3n2C)nc1C	4.01
CCOc1ccc(/C=C2/C(=O)NC(=O)N(CCc3ccc(F)cc3)C2=O)cc1	8.76
CCCCC1=CC2=CC(=O)C(C)(OC(=O)c3cccs3)C(=O)C2=CO1 (centres unmarked)	6.94
COc1c(Cl)ccc(Cl)c1C(=O)OCC(=O)O	5.86
CCC(O)C(C)(C)C (centres unmarked)	5.99
O=C(Nc1ccccc1C(F)(F)F)c1ccc(CN2CCC(Cc3ccccc3)CC2)cc1	-42.4
CC(=O)Nc1cc2c(cc1NC(=O)Cn1nnc(-c3ccc(C)o3)n1)OCCO2	8.56
COc1cc(S(=O)(=O)N(Cc2cccnc2)Cc2ccco2)ccc1-n1cnnn1	-52.3
Cc1ccc(N2CC(C(=O)NCc3cccs3)CC2=O)cc1C (centres unmarked)	-7.52
COc1cc(-c2nnc(SCC(=O)OC3CCCCC3)o2)cc(OC)c1OC	5.1
CCCCCNc1nc(N2CCCC2)c2c(c1C#N)CCN(C)C2	-72.8
COC(=O)c1ccc(CN2CCCCC2)cc1	1.45
CC(C)CN1CCN(Cc2cnc(-c3ccc(Cl)cc3)nc2)CC1CCO (centres unmarked)	-67.2
Cc1ccc(-c2noc(COC(=O)c3ccco3)n2)cc1	-13.3
CC(c1nnc(SCC(=O)Nc2cccnc2Cl)n1-c1ccccc1)N(C)C (centres unmarked)	5.26
COc1ccccc1C(=O)Nc1ccc(-c2nnn(CC(=O)N3CCOCC3)n2)cc1	19
COc1cccc(OC)c1CN1CCCC(C(=O)c2ccccc2SC)C1 (centres unmarked)	-72.6
CSc1ccccc1NC(=O)c1cccnc1	26.7
C/C(=N\N(c1ccccc1)c1ccccc1)c1ccc(O)cc1	3.42
